The full ranking holds about 33,000 sequences; the median of “E-score (-0.5 to 0.5)” is about -0.017, and the highest 2% start at about 0.3. This is one part of the list.
The sequences below were run against T1, Sut1 (UniProt P53032) (assay: PBM E-score (8-mer binding enrichment) (E-score (-0.5 to 0.5)); higher = stronger / more preferred TF binding; most listed sequences are background and not binding sites). Conditions: protein concentration: 200 nM; construct: GST-full length.
T1 sequence: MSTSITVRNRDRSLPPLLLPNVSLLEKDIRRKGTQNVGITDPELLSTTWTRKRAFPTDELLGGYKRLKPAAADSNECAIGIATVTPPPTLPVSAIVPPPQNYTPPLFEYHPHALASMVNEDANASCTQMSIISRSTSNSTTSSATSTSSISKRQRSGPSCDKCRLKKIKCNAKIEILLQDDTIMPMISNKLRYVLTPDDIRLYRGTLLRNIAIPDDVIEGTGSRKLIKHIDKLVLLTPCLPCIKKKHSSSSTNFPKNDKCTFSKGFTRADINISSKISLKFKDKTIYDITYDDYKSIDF
In short: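 E-scores (a modified Wilcoxon-Mann-Whitney statistic) were assigned by the Universal PBM Analysis Suite to every ungapped eight-base word pooled with its reverse complement. The input came from universal all-10-mer Agilent arrays made double-stranded by primer extension and probed with GST-tagged yeast transcription factors at about 100-200 nM. Fluorescent anti-GST detected bound protein, and masliner normalised the scans.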
For ACCGTCGA, the “PBM E-score” value was -0.137.
For ATTGAGAA, the “PBM E-score” value was 0.264.
In the case of GGCGTAAA, the “PBM E-score” value is reported as 0.0487.
For GAACGGGA, the “PBM E-score” value was 0.0237.
ACCCAAGC was tested, and the “PBM E-score” value was -0.226.
In the case of CGAAGAAG, the “PBM E-score” value is reported as 0.0783.
In the case of AATCCGTC, the “PBM E-score” value is reported as 0.0795.
AGAAATCC was tested, and the “PBM E-score” value was 0.105.
For AGGGATTA, the “PBM E-score” value was -0.147.
With ACTACCAC the “PBM E-score” value was -0.0627.
In the case of CCTGAGCA, the “PBM E-score” value is reported as -0.0293.
With CTAGTGCC the “PBM E-score” value was -0.184.
For GACAAGGA, the “PBM E-score” value was 0.052.
AAACTCTT was tested, and the “PBM E-score” value was -0.0658.
With AGGATACA the “PBM E-score” value was 0.0244.
With GTGGCGGA the “PBM E-score” value was 0.124.
CCTTGGAA was tested, and the “PBM E-score” value was 0.0966.
For ACAAGGCA, the “PBM E-score” value was -0.0581.
With CAGCCACG the “PBM E-score” value was -0.06.
With AGTCTCAA the “PBM E-score” value was -0.149.
For GAGTGGCA, the “PBM E-score” value was -0.173.
For ACTACCTG, the “PBM E-score” value was -0.0394.
In the case of GTACACAC, the “PBM E-score” value is reported as 0.0244.
With AGAGAATG the “PBM E-score” value was -0.00446.
AATAAAGT was tested, and the “PBM E-score” value was 0.22.
For GCTATGCC, the “PBM E-score” value was -0.171.
For CCCTGCTA, the “PBM E-score” value was -0.278.
In the case of TCTATCAA, the “PBM E-score” value is reported as 0.0982.
CGTGTGGC was tested, and the “PBM E-score” value was -0.162.
In the case of ACTACCAG, the “PBM E-score” value is reported as -0.0981.
AGTCATGG was tested, and the “PBM E-score” value was 0.00723.
In the case of CTCACACC, the “PBM E-score” value is reported as -0.164.
In the case of ATGTCCTC, the “PBM E-score” value is reported as -0.146.
With CATTGGTA the “PBM E-score” value was 0.114.
For GCTCTTGA, the “PBM E-score” value was -0.0645.
For CGCCTATC, the “PBM E-score” value was -0.0597.
With ATCGCCAA the “PBM E-score” value was -0.0192.
For GGGTCGCA, the “PBM E-score” value was -0.0918.
ACCATGCG was tested, and the “PBM E-score” value was -0.0896.
CGCATCCG was tested, and the “PBM E-score” value was 0.0404.
For ATCCATTA, the “PBM E-score” value was 0.076.
With AGATTTGC the “PBM E-score” value was 0.072.
ATACATCG was tested, and the “PBM E-score” value was 0.128.
AACGCATG was tested, and the “PBM E-score” value was -0.114.
In the case of ACGACTAG, the “PBM E-score” value is reported as -0.0608.
With CGCCCGCC the “PBM E-score” value was -0.195.
In the case of CACGACGC, the “PBM E-score” value is reported as -0.224.
In the case of CATGGCGC, the “PBM E-score” value is reported as -0.0707.
With ACGGGGCG the “PBM E-score” value was 0.0468.
In the case of ATACAATC, the “PBM E-score” value is reported as 0.236.
For AAACTCCA, the “PBM E-score” value was 0.297.
For AACAAGTT, the “PBM E-score” value was 0.132.
AGTGCAGA was tested, and the “PBM E-score” value was 0.00361.
For AAAACCGC, the “PBM E-score” value was 0.113.
For AGTACAGC, the “PBM E-score” value was -0.0707.
With AGGTCGTA the “PBM E-score” value was -0.0445.
ACTCCTCA was tested, and the “PBM E-score” value was 0.0205.
With AACGAGCT the “PBM E-score” value was -0.0799.
For AAACCTTC, the “PBM E-score” value was -0.0412.
CCTCAGCG was tested, and the “PBM E-score” value was -0.118.
In the case of GATTGTTA, the “PBM E-score” value is reported as 0.167.
For CCAGTAGC, the “PBM E-score” value was -0.0812.
With CCCGACTC the “PBM E-score” value was -0.0963.
With ATGAACTG the “PBM E-score” value was 0.0691.
For AGTGGAAG, the “PBM E-score” value was -0.126.
With CTGCGCAA the “PBM E-score” value was 0.0232.
For CGATCCGA, the “PBM E-score” value was 0.101.
In the case of CACCCTCC, the “PBM E-score” value is reported as -0.0973.
For CAAAACAC, the “PBM E-score” value was 0.14.
TAACTACA was tested, and the “PBM E-score” value was 0.179.
ACGTAGAG was tested, and the “PBM E-score” value was -0.179.
With CTGTATGA the “PBM E-score” value was 0.147.
In the case of ACCATTCT, the “PBM E-score” value is reported as 0.0248.
For GACAGGAA, the “PBM E-score” value was 0.0604.
With CACCCTGA the “PBM E-score” value was -0.296.
In the case of ACTCCCAC, the “PBM E-score” value is reported as -0.121.
In the case of GATGGCCA, the “PBM E-score” value is reported as -0.0631.
In the case of TGATACAA, the “PBM E-score” value is reported as 0.0578.
For GTGCGTTA, the “PBM E-score” value was 0.0585.
CGACCTGC was tested, and the “PBM E-score” value was -0.205.
GTCAACGA was tested, and the “PBM E-score” value was -0.0964.
In the case of CGATGTGC, the “PBM E-score” value is reported as -0.169.
With CAGTGTGA the “PBM E-score” value was -0.0672.
With ATCAAGAA the “PBM E-score” value was 0.149.
With AGTATCCA the “PBM E-score” value was -0.0247.
For ACCCCTAT, the “PBM E-score” value was -0.171.
With AAGATGAA the “PBM E-score” value was -0.0212.
In the case of ATGCCTAG, the “PBM E-score” value is reported as -0.155.
For CAACCTCC, the “PBM E-score” value was -0.00121.
TGATTACA was tested, and the “PBM E-score” value was 0.148.
In the case of AGCTACTG, the “PBM E-score” value is reported as -0.0717.
In the case of TAACGCCA, the “PBM E-score” value is reported as -0.163.
With ATTTATGG the “PBM E-score” value was 0.0698.
In the case of GGAACAGA, the “PBM E-score” value is reported as 0.0314.
In the case of CTGCCTAA, the “PBM E-score” value is reported as -0.177.
For CTCAGGTC, the “PBM E-score” value was -0.0238.
With CATGACCC the “PBM E-score” value was -0.177.
For CACTTGCC, the “PBM E-score” value was -0.0834.
With GCCACCAC the “PBM E-score” value was -0.276.
With CTCAACCC the “PBM E-score” value was -0.0612.
In the case of CGTTTTCC, the “PBM E-score” value is reported as 0.0573.
CATGTAGC was tested, and the “PBM E-score” value was -0.145.
In the case of TCTTTGCA, the “PBM E-score” value is reported as 0.0819.
AAGCGTGC was tested, and the “PBM E-score” value was -0.101.
In the case of GCATACGA, the “PBM E-score” value is reported as -0.154.
For ATGACCCG, the “PBM E-score” value was -0.137.
In the case of CCGCAGAA, the “PBM E-score” value is reported as 0.0503.
With CTCTAACC the “PBM E-score” value was -0.142.
In the case of CAGCTCCG, the “PBM E-score” value is reported as 0.461.
CTTCTAAC was tested, and the “PBM E-score” value was 0.0204.
For TAAGCCTA, the “PBM E-score” value was 0.155.
In the case of AACTATAA, the “PBM E-score” value is reported as 0.204.
In the case of AATACTCG, the “PBM E-score” value is reported as 0.139.
CTACAAGA was tested, and the “PBM E-score” value was 0.0288.
CGTCTGTC was tested, and the “PBM E-score” value was -0.213.
In the case of CGCGCACG, the “PBM E-score” value is reported as -0.173.
For GACATGAA, the “PBM E-score” value was 0.051.
For CGCTTTCA, the “PBM E-score” value was 0.0224.
For GTTCTCAA, the “PBM E-score” value was 0.167.
With AGCCTATG the “PBM E-score” value was -0.222.
GATGGACC was tested, and the “PBM E-score” value was -0.0525.
With CGACGCAC the “PBM E-score” value was 0.0224.
For ACTTCGCG, the “PBM E-score” value was 0.00486.
ACTACAAG was tested, and the “PBM E-score” value was 0.0409.
GGACTTCA was tested, and the “PBM E-score” value was 0.321.
CGTAGCAG was tested, and the “PBM E-score” value was -0.128.
With ACTTGGCA the “PBM E-score” value was -0.136.
With GAGTGCCC the “PBM E-score” value was -0.186.
For GGTTCACA, the “PBM E-score” value was -0.178.
For ACAGTCAC, the “PBM E-score” value was -0.176.
GGCATACA was tested, and the “PBM E-score” value was -0.0976.
With CCCAGAGC the “PBM E-score” value was -0.343.
In the case of TAAGTTGA, the “PBM E-score” value is reported as 0.0816.
For CAGGCGTA, the “PBM E-score” value was -0.0738.
ACTTCCCT was tested, and the “PBM E-score” value was -0.1.
With TAAGCGCA the “PBM E-score” value was -0.168.
In the case of ACCAATGG, the “PBM E-score” value is reported as -0.0511.
In the case of CCCCAGAA, the “PBM E-score” value is reported as -0.173.
For CACCCACC, the “PBM E-score” value was -0.101.
ATCCGCGA was tested, and the “PBM E-score” value was -0.0287.
In the case of AAGGTATA, the “PBM E-score” value is reported as 0.0577.
In the case of TATGGCCA, the “PBM E-score” value is reported as -0.0105.
For CTTAACTC, the “PBM E-score” value was 0.173.
AGTCGACA was tested, and the “PBM E-score” value was 0.00252.
CGAACTTA was tested, and the “PBM E-score” value was 0.0781.
In the case of ATCGTCTA, the “PBM E-score” value is reported as -0.0411.
CGACGTGC was tested, and the “PBM E-score” value was -0.197.
In the case of CCTCGAAA, the “PBM E-score” value is reported as 0.14.
For AAGGAGTA, the “PBM E-score” value was 0.0607.
For AATTGTCG, the “PBM E-score” value was -0.0404.
In the case of CCAAGCCG, the “PBM E-score” value is reported as -0.219.
In the case of ACCAGCAC, the “PBM E-score” value is reported as -0.131.
In the case of GGCGATGA, the “PBM E-score” value is reported as -0.143.
With CGGCCAGC the “PBM E-score” value was 0.024.
In the case of AGCCCGAG, the “PBM E-score” value is reported as -0.098.
With AGAGCTCT the “PBM E-score” value was -0.219.
In the case of TACACACA, the “PBM E-score” value is reported as 0.123.
For CTAACAAA, the “PBM E-score” value was 0.084.
In the case of CGTCGATC, the “PBM E-score” value is reported as 0.0411.
For CTCATCGC, the “PBM E-score” value was -0.184.
With ACCATAGA the “PBM E-score” value was 0.0209.
GTGCATGA was tested, and the “PBM E-score” value was -0.115.
With AACCAGTA the “PBM E-score” value was 0.0479.
In the case of GTAACAAC, the “PBM E-score” value is reported as 0.0977.
For AAGTCTTA, the “PBM E-score” value was -0.0979.
GGCGTGCA was tested, and the “PBM E-score” value was -0.037.
With GCTAACAA the “PBM E-score” value was -0.0415.
AAACTGAT was tested, and the “PBM E-score” value was -0.022.
For CTCAGTTC, the “PBM E-score” value was -0.0325.
In the case of GCCTACCA, the “PBM E-score” value is reported as -0.191.
In the case of ATAATGAG, the “PBM E-score” value is reported as 0.238.
For CACACCTG, the “PBM E-score” value was -0.239.
